Reference: the supplement of paper PMC4604168 (melanoma cell lines)
This is one part of the list. Many values rest on one well or one pass, so single values are uncertain.

test system: SkMel28; assay: cell count relative to DMSO control; melanoma cells; higher = more viable cells; details: library dose: low library concentration; 72 h
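Further: cell number obtained by counting DAPI-stained nuclei in high-throughput microscope images with image analysis software, screen run in 1,536-well plates.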

Compound | cell count [%]
COc1cc([C@@H]2c3cc4c(cc3[C@@H](O[C@@H]3O[C@@H]5CO[C@@H](C)O[C@H]5[C@H](O)[C@H]3O)[C@H]3COC(=O)[C@H]23)OCO4)cc(OC)c1O [etoposide] + CN(NC(=O)CC(=O)NN(C)C(=S)c1ccccc1)C(=S)c1ccccc1 [STA4783] (first compound 0.02 µM, partner dose 0.006 µM) | 83
C[C@]1(O)C[C@@H](c2nc(-c3ccc4ccc(-c5ccccc5)nc4c3)c3c(N)nccn32)C1 + Cc1cc([N+](=O)[O-])ccc1NS(=O)(=O)c1cc(Cl)ccc1Cl [FH535] (first compound 0.4 µM, partner dose 1 µM) | 84.9
CCN(CC)CCNC(=O)c1c(C)[nH]c(/C=C2\C(=O)Nc3ccc(F)cc32)c1C [sunitinib] + COC(=O)c1sccc1S(=O)(=O)Nc1ccc(Nc2ccccc2)cc1OC [GSK0660] (first compound 0.4 µM, partner dose 1 µM) | 98.8
Cn1cnc2c(F)c(Nc3ccc(Br)cc3Cl)c(C(=O)NOCCO)cc21 [selumetinib] + COc1cc2c(Oc3ccc4[nH]c(C)cc4c3F)ncnc2cc1OCCCN1CCCC1 [cediranib] (first compound 0.015 µM, partner dose 0.4 µM) | 93
Cn1cnc2c(F)c(Nc3ccc(Br)cc3Cl)c(C(=O)NOCCO)cc21 [selumetinib] + COc1cc2ncnc(Nc3ccc(Oc4ccccc4)cc3)c2cc1OC [SrcI1] (first compound 0.015 µM, partner dose 2 µM) | 91.8
